# Inconclusive results are not listed. The call rests on the fitted dose curve; in most records, active means well fitted curve in the direction sought with a large enough effect; inconclusive means small, poorly fitted or top-dose-only effect, or another doubt; inactive means no such curve, though single readings can be large; an effect the other way counts as inactive or inconclusive. Some compounds were tested as several samples or in several runs, with calls that do not always agree. The source holds more than one record for some entries. The other results are left out here. The source may hold further records. The values listed for one entry repeat one measurement (runs, samples, wells, individuals or studies). Records carry a tag for their origin. A, B and so on number the origins entry by entry. Counts like (3×) stand for listed records that agree.
# Tests used:
# [1] = qHTS of pediatric cancer cell lines to identify multiple opportunities for drug repurposing: Primary screen for SK-N-MC cells (AID 1347093)
# [2] = qHTS of pediatric cancer cell lines to identify multiple opportunities for drug repurposing: Primary screen for NB1643 cells (AID 1347099); further: nearly all actives have a fitted effect of over 50% in size
# [3] = qHTS of pediatric cancer cell lines to identify multiple opportunities for drug repurposing: Primary screen for TC32 cells (AID 1347089); further: nearly all actives have a fitted effect of over 60% in size
# Procedure, shortened: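 A viability screen of TC32 cells was run over 48 h, with primary MIPE doses spanning 0.78 nM–46 µM and NPC doses 0.59 nM–46 µM. ATP luminescence (CellTiter-Glo) served as the read-out.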
# [4] = qHTS of pediatric cancer cell lines to identify multiple opportunities for drug repurposing: Primary screen for A673 cells (AID 1347092); further: nearly all actives have a fitted effect of over 45% in size
# Procedure, shortened: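 Titration-based qHTS on A673 cells: MIPE compounds spanned 11 points (0.78 nM to 46 µM final), NPC compounds 8 points (0.59 nM to 46 µM final). Viability after 48 h was measured by ATP luminescence.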
# [5] = qHTS of pediatric cancer cell lines to identify multiple opportunities for drug repurposing: Primary screen for DAOY cells (AID 1347090); further: nearly all actives have a fitted effect of over 55% in size
# Procedure, shortened: (§1)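 Eight- or eleven-point concentration series, 48 h treatment at 37 degrees C in growth media; readout CellTiter-Glo luminescence. Potency and efficacy were taken from the concentration-response curves.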
# [6] = qHTS of pediatric cancer cell lines to identify multiple opportunities for drug repurposing: Primary screen for MG 63 (6-TG R) cells (AID 1347105); further: nearly all actives have a fitted effect of over 50% in size
# Procedure, shortened: (§2)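 Viability was measured as metabolically active cells after 48 hours of treatment, read by CellTiter-Glo luminescence. Compounds were tested at multiple final concentrations, giving concentration-response curves.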
# [7] = tested on: Zika virus NS2B-NS3 protease; experiment: Primary screen GU AMC qHTS for Zika virus inhibitors (AID 1347154); further: nearly all actives have a fitted effect of over 70% in size
# Procedure, shortened: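 Unlinked Zika NS2B hydrophilic domain/NS3 protease domain noncovalent complex (25 nM final) in 10 mM Tris-HCl pH 8.0, 0.01% Tween 20, with AMC peptide substrate. Fluorescence (ex 340, em 450 nm) change over 15 min, room temperature; percent inhibition fitted to 4-parameter Hill equation.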
# [8] = qHTS of pediatric cancer cell lines to identify multiple opportunities for drug repurposing: Primary screen for Rh30 cells (AID 1347107); further: nearly all actives have a fitted effect of over 75% in size
# Procedure, shortened: (§3)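 Cells (500-1,000/well) in growth media were settled 5 h at 37 degrees C, then given compounds for 48 h. Viability was read as CellTiter-Glo luminescence. Primary runs used MIPE at 11 points (0.78 nM-46 µM) and NPC at 8 points (0.59 nM-46 µM); follow-ups used 11 points.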
# [9] = qHTS of pediatric cancer cell lines to identify multiple opportunities for drug repurposing: Primary screen for Rh41 cells (AID 1347108); further: nearly all actives have a fitted effect of over 70% in size
# Procedure, shortened: as §2
# [10] = qHTS of pediatric cancer cell lines to identify multiple opportunities for drug repurposing: Primary screen for Saos-2 cells (AID 1347097); further: nearly all actives have a fitted effect of over 40% in size
# Procedure, shortened: as §2
# [11] = qHTS of pediatric cancer cell lines to identify multiple opportunities for drug repurposing: Primary screen for SJ-GBM2 cells (AID 1347091)
# Procedure, shortened: as §1
# [12] = qHTS of pediatric cancer cell lines to identify multiple opportunities for drug repurposing: Primary screen for NB-EBc1 cells (AID 1347095)
# [13] = qHTS of pediatric cancer cell lines to identify multiple opportunities for drug repurposing: Primary screen for LAN-5 cells (AID 1347100)
# Procedure, shortened: as §3
# [14] = qHTS of pediatric cancer cell lines to identify multiple opportunities for drug repurposing: Primary screen for SK-N-SH cells (AID 1347098); further: nearly all actives have a fitted effect of over 65% in size
# Procedure, shortened: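 Cells (500-1,000/well) rested 5 h, then received compounds for 48 h; metabolically active cells were measured by CellTiter-Glo luminescence. Final concentrations spanned up to 46 µM (MIPE, 11-point) or 0.59 nM-46 µM (NPC, 8-point) in primary screens, 11-point in follow-ups.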
# [15] = qHTS of pediatric cancer cell lines to identify multiple opportunities for drug repurposing: Primary screen for RD cells (AID 1347104); further: nearly all actives have a fitted effect of over 55% in size
# Procedure, shortened: as §2
# [16] = tested on: Zika virus NS2B-NS3 protease (linked construct); experiment: Confirmatory screen NINDS AMC qHTS for Zika virus inhibitors (AID 1347152); further: nearly all actives have a fitted effect of over 70% in size
# Procedure, shortened: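 Concentration-response confirmation used the NINDS linked protease (NS2B hydrophilic domain joined to NS3 protease domain), 1 nM, with a 15-min compound preincubation. Substrate, Nle-KRR-AMC at 10 microM, was read by UV fluorescence before and after 15 min.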
# [17] = tested on: Zika virus NS2B-NS3 protease (unlinked complex); experiment: Confirmatory screen GU AMC qHTS for Zika virus inhibitors (AID 1347153); further: nearly all actives have a fitted effect of over 70% in size;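 on Potency: enzyme at 25 nM with substrate at 10 µM below its Km of 18.3 µM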
# Procedure, shortened: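 Noncovalent NS2B hydrophilic domain/NS3 protease complex (25 nM) in 10 mM Tris-HCl pH 8.0, 0.01% Tween 20 was preincubated 15 min at room temperature with compounds. Then 10 µM AMC substrate (Km 18.3 µM) was added; fluorescence was read over 15 min and fitted to a 4-parameter Hill equation.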
# [18] = Confirmatory screen NINDS Rhodamine qHTS for Zika virus inhibitors (AID 1347161); further: nearly all actives have a fitted effect of over 60% in size
# Procedure, shortened: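 Purified linked NS2B-NS3 protease (NS2B hydrophilic domain joined to NS3 protease by flexible linker), 25 nM in 10 mM Tris-HCl pH 8.0, 0.01% Tween 20. Compounds titrated, 15 min preincubation at room temperature; 1.5 microM Rhodamine110 substrate, FITC fluorescence change over 15 min.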
# [19] = Tertiary RLuc qRT-PCR qHTS assay for Zika virus inhibitors (AID 1347169); further: nearly all actives have a fitted effect of over 55% in size
# Procedure, shortened: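 Inhibition of ZIKV-RLuc replication in Vero cells, read as Renilla luminescence 1-1.5 hrs after live-cell substrate addition, following 48-72 hrs infection at MOI 1-2 in presence of compound.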
# Potency means the concentration at half of the fitted maximal effect.
smiles,measurement,setting,value
O=C1CCc2cc(OCCCCc3nnnn3C3CCCCC3)ccc2N1,Potency,[1],inactive [sample A] and active: 29.6 µM [sample B]
same,Potency,[2],inactive [sample A] and active: 16.6 µM [sample B]
Cc1[nH]c(=O)c(C#N)cc1-c1ccncc1,Potency,[3],active: 6.58 µM [sample A] and inactive [sample B] and inactive [sample C]
same,Potency,[1],active: 4.69 µM [sample A] and inactive [sample B] and inactive [sample C]
same,Potency,[2],active: 16.6 µM [sample A] and inactive [sample B] and inactive [sample C]
COc1ccc2nc(S(=O)Cc3ncc(C)c(OC)c3C)[nH]c2c1 (stereo not given),Potency,[4],inactive [sample A] and active: 18.7 µM [sample B]
same,Potency,[1],inactive [sample A] and active: 20.9 µM [sample B]
same,Potency,[2],inactive [sample A] and active: 23.5 µM [sample B]
Cc1ccc(-n2nc(C(C)(C)C)cc2NC(=O)Nc2ccc(OCCN3CCOCC3)c3ccccc23)cc1,Potency,[5],active: 5.9 µM [sample A] and inactive [sample B]
same,Potency,[2],active: 2.96 µM [sample A] and inactive [sample B]
same,Potency,[6],active: 18.7 µM [sample A] and inactive [sample B]
Cc1oncc1C(=O)Nc1ccc(C(F)(F)F)cc1,Potency,[4],inactive [sample A] and active: 18.7 µM [sample B]
Cc1cc2c(C(C)C)c(O)c(O)c(C=O)c2c(O)c1-c1c(C)cc2c(C(C)C)c(O)c(O)c(C=O)c2c1O,Potency,[7],inactive [sample A] and active: 6.31 µM [sample B]
CC(=O)Oc1ccccc1C(=O)O,Potency,[5],inactive [sample A] and active: 9.35 µM [sample B]
same,Potency,[8],inactive [sample A] and active: 11.8 µM [sample B]
same,Potency,[9],inactive [sample A] and active: 23.5 µM [sample B]
CCOC(=O)N1CCC(=C2c3ccc(Cl)cc3CCc3cccnc32)CC1,Potency,[10],inactive [sample A] and active: 26.6 µM [sample B]
same,Potency,[2],inactive [sample A] and active: 23.7 µM [sample B]
C#Cc1cccc(Nc2ncnc3cc(OCCOC)c(OCCOC)cc23)c1,Potency,[11],active: 18.7 µM [sample A] and inactive [sample B]
same,Potency,[4],active: 935 nM [sample A] and inactive [sample B]
same,Potency,[12],active: 2.96 µM [sample A] and inactive [sample B]
same,Potency,[13],active: 7.43 µM [sample A] and inactive [sample B]
C1COC(NC(C2CC2)C2CC2)=N1,Potency,[1],active: 23.5 µM [sample A] and inactive [sample B]
OC(CN1CCC(Cc2ccc(F)cc2)CC1)c1ccc(Cl)cc1 (stereo not given),Potency,[1],active: 20.9 µM [sample A] and inactive [sample B]
same,Potency,[12],inactive [sample A] and active: 16.8 µM [sample B]
NC(N)=NC(=O)c1nc(Cl)c(N)nc1N,Potency,[5],active: 18.7 µM [sample A] and inactive [sample B]
same,Potency,[4],active: 9.35 µM [sample A] and inactive [sample B]
same,Potency,[1],active: 1.48 µM [sample A] and inactive [sample B]
same,Potency,[14],active: 30.4 µM [sample A] and inactive [sample B]
same,Potency,[2],active: 14.8 µM [sample A] and inactive [sample B]
same,Potency,[7],inactive [sample A] and active: 18.9 µM [sample B] and active: 31.6 µM [sample C]
N=c1nc(N2CCCCC2)cc(N)n1O,Potency,[4],active: 18.7 µM [sample A] and inactive [sample B]
same,Potency,[1],active: 33.2 µM [sample A] and inactive [sample B]
same,Potency,[15],active: 33.2 µM [sample A] and inactive [sample B]
same,Potency,[7],active: 34.1 µM and inactive (3×) [separate samples]
CCCCNc1cc(C(=O)O)cc(S(N)(=O)=O)c1Oc1ccccc1,Potency,[7],inactive [sample A] and active: 27.1 µM [sample B]
O=NN(CCCl)C(=O)NCCCl,Potency,[12],inactive [sample A] and active: 18.7 µM [sample B]
CC(C)(Sc1ccc(CCN(CCCCC2CCCCC2)C(=O)NC2CCCCC2)cc1)C(=O)O,Potency,[16],inactive [sample A] and active: 13.9 µM [sample B]
same,Potency,[17],inactive [sample A] and active: 13.9 µM [sample B]
same,Potency,[18],inactive [sample A] and active: 2.48 µM [sample B]
same,Potency,[19],inactive [sample A] and active: 14.7 µM [sample B]
O=c1[nH]cnc2[nH]ncc12,Potency,[1],inactive [sample A] and active: 18.7 µM [sample B]
Nc1nc2c(ncn2COCCO)c(=O)[nH]1,Potency,[1],inactive [sample A] and active: 5.26 µM [sample B]
CCOC(=O)C1=C[C@]2(CC)CCCN3CCc4c(n1c1ccccc41)[C@@H]32,Potency,[4],active: 18.7 µM [sample A] and inactive [sample B]
same,Potency,[10],active: 37.2 µM [sample A] and inactive [sample B]
same,Potency,[14],active: 24.1 µM [sample A] and inactive [sample B]
same,Potency,[13],active: 23.5 µM [sample A] and inactive [sample B]
same,Potency,[15],active: 29.6 µM [sample A] and inactive [sample B]
same,Potency,[6],active: 23.5 µM [sample A] and inactive [sample B]
COc1ccc([C@@H]2CC(=O)c3c(O)cc(O[C@@H]4O[C@H](CO[C@@H]5O[C@@H](C)[C@H](O)[C@@H](O)[C@@H]5O)[C@@H](O)[C@H](O)[C@@H]4O)cc3O2)cc1O,Potency,[4],inactive [sample A] and active: 9.35 µM [sample B]

# — PubChem BioAssay (NCATS)
